Laboratory results: patent US9428499B2, “Heterocyclyl compounds as MEK inhibitors” (LUPIN LIMITED, priority 2012, dated 2016)
Some entries share one result that the patent states for a list of compounds.

Molecular target: MEK enzyme
Assay: MEK kinase inhibition (KinaseGlo luminescence)
Type: biochemical
Conditions: ERK substrate, 1% DMSO, read-out: MEK kinase inhibition activity of the compounds (IC50)

| Compound | IC50 [µM] |
| --- | --- |
| Cc1c(=O)n(C)c(Nc2ccc(I)cc2F)c2c(=O)[nH]c(=O)n(-c3cccc(CC(=O)NC4CC4)c3)c12 [Compound 4, N-cyclopropyl-2-(3-(5-((2-fluoro-4-iodophenyl)amino)-6,8-dimethyl-2,4,7-trioxo-3,4,6,7-tetrahydropyrido[4,3-d]pyrimidin-1(2H)-yl)phenyl)acetamide] | 0.001 to 0.499 |
| Cc1c(=O)n(C)c(Nc2ccc(I)cc2F)c2c(=O)[nH]c(=O)n(-c3cccc(C(=O)N4CCOCC4)c3)c12 [Compound 7, 5-((2-fluoro-4-iodophenyl)amino)-6,8-dimethyl-1-(3-(morpholine-4-carbonyl)phenyl)pyrido[4,3-d]pyrimidine-2,4,7(1H,3H,6H)-trione] | 0.001 to 0.499 |
| Cc1c(=O)n(C)c(Nc2ccc(I)cc2F)c2c(=O)n(C3CC3)c(=O)n(-c3cccc(CC(N)=O)c3)c12 [Compound 26, 2-(3-(3-cyclopropyl-5-((2-fluoro-4-iodophenyl)amino)-6,8-dimethyl-2,4,7-trioxo-3,4,6,7-tetrahydropyrido[4,3-d]pyrimidin-1(2H)-yl)phenyl)acetamide] | 0.001 to 0.499 |
| Cc1c(=O)n(C)c(Nc2ccc(I)cc2F)c2c(=O)n(C3CC3)c(=O)n(-c3cccc(CC(=O)N(C)C)c3)c12 [Compound 29, 2-(3-(3-cyclopropyl-5-((2-fluoro-4-iodophenyl)amino)-6,8-dimethyl-2,4,7-trioxo-3,4,6,7-tetrahydropyrido[4,3-d]pyrimidin-1(2H)-yl)phenyl)-N,N-dimethylacetamide] | 0.001 to 0.499 |
| Cc1c(=O)n(C)c(Nc2ccc(I)cc2F)c2c(=O)n(C)c(=O)n(-c3cccc(CC(=O)N4CC(O)C4)c3)c12 [Compound 48, 5-((2-fluoro-4-iodophenyl)amino)-1-(3-(2-(3-hydroxyazetidin-1-yl)-2-oxoethyl)phenyl)-3,6,8-trimethylpyrido[4,3-d]pyrimidine-2,4,7(1H,3H,6H)-trione] | 0.001 to 0.499 |
| CCn1c(=O)c2c(Nc3ccc(I)cc3F)n(C)c(=O)c(C)c2n(-c2cccc(C(=O)N3CCS(=O)(=O)CC3)c2)c1=O [Compound 66, 1-(3-(1,1-dioxidothiomorpholine-4-carbonyl)phenyl)-3-ethyl-5-((2-fluoro-4-iodophenyl)amino)-6,8-dimethylpyrido[4,3-d]pyrimidine-2,4,7(1H,3H,6H)-trione] | 0.001 to 0.499 |
| Cc1c(=O)n(C)c(Nc2ccc(I)cc2F)c2c(=O)n(C(C)C)c(=O)n(-c3cccc(C(=O)NC4CC4)c3)c12 [Compound 69, N-cyclopropyl-3-(5-((2-fluoro-4-iodophenyl)amino)-3-isopropyl-6,8-dimethyl-2,4,7-trioxo-3,4,6,7-tetrahydropyrido[4,3-d]pyrimidin-1(2H)-yl)benzamide] | 1.6 to 3 |
| Cc1c(=O)n(C)c(Nc2ccc(I)cc2F)c2c(=O)n(C3CC3)c(=O)n(-c3cccc(C(=O)N4CCS(=O)(=O)CC4)c3)c12 [Compound 39, 3-cyclopropyl-1-(3-(1,1-dioxidothiomorpholine-4-carbonyl)phenyl)-5-((2-fluoro-4-iodophenyl)amino)-6,8-dimethylpyrido[4,3-d]pyrimidine-2,4,7(1H,3H,6H)-trione] | 0.001 to 0.499 |
| Cc1c(=O)n(C)c(Nc2ccc(I)cc2F)c2c(=O)n(C3CC3)c(=O)n(-c3cccc(CCC(N)=O)c3)c12 [Compound 34, 3-(3-(3-cyclopropyl-5-((2-fluoro-4-iodophenyl)amino)-6,8-dimethyl-2,4,7-trioxo-3,4,6,7-tetrahydropyrido[4,3-d]pyrimidin-1(2H)-yl)phenyl)propanamide] | 0.001 to 0.499 |
| Cc1c(=O)n(C)c(Nc2ccc(I)cc2F)c2c(=O)[nH]c(=O)n(-c3cccc(CCC(N)=O)c3)c12 [Compound 1, 3-(3-(5-((2-fluoro-4-iodophenyl)amino)-6,8-dimethyl-2,4,7-trioxo-3,4,6,7-tetrahydropyrido[4,3-d]pyrimidin-1(2H)-yl)phenyl)propanamide] | 0.001 to 0.499 |
| Cc1c(=O)n(C)c(Nc2ccc(I)cc2F)c2c(=O)n(C3CC3)c(=O)n(-c3cccc(CC(=O)N4CC(O)C4)c3)c12 [Compound 33, 3-cyclopropyl-5-((2-fluoro-4-iodophenyl)amino)-1-(3-(2-(3-hydroxyazetidin-1-yl)-2-oxoethyl)phenyl)-6,8-dimethylpyrido[4,3-d]pyrimidine-2,4,7(1H,3H,6H)-trione] | 0.001 to 0.499 |
| Cc1c(=O)n(C)c(Nc2ccc(I)cc2F)c2c(=O)[nH]c(=O)n(-c3cccc(C(=O)NC4CCOCC4)c3)c12 [Compound 13, 3-(5-((2-fluoro-4-iodophenyl)amino)-6,8-dimethyl-2,4,7-trioxo-3,4,6,7-tetrahydropyrido[4,3-d]pyrimidin-1(2H)-yl)-N-(tetrahydro-2H-pyran-4-yl)benzamide] | 0.001 to 0.499 |
| Cc1c(=O)n(C)c(Nc2ccc(I)cc2F)c2c(=O)n(C)c(=O)n(-c3cccc(OCC(=O)NC4CC4)c3)c12 [Compound 41, N-cyclopropyl-2-(3-(5-((2-fluoro-4-iodophenyl)amino)-3,6,8-trimethyl-2,4,7-trioxo-3,4,6,7-tetrahydropyrido[4,3-d]pyrimidin-1(2H)-yl)phenoxy)acetamide] | 0.001 to 0.499 |
| Cc1c(=O)n(C)c(Nc2ccc(I)cc2F)c2c(=O)n(C)c(=O)n(-c3cccc([C@H](O)C(N)=O)c3)c12 [Compound 76, (S)-2-(3-(5-((2-fluoro-4-iodophenyl)amino)-3,6,8-trimethyl-2,4,7-trioxo-3,4,6,7-tetrahydropyrido[4,3-d]pyrimidin-1(2H)-yl)phenyl)-2-hydroxyacetamide] | 0.001 to 0.499 |
| Cc1c(=O)n(C)c(Nc2ccc(I)cc2F)c2c(=O)n(C(F)F)c(=O)n(-c3cccc(C(=O)NC4CC4)c3)c12 [Compound 72, N-cyclopropyl-3-(3-(difluoromethyl)-5-((2-fluoro-4-iodophenyl)amino)-6,8-dimethyl-2,4,7-trioxo-3,4,6,7-tetrahydropyrido[4,3-d]pyrimidin-1(2H)-yl)benzamide] | 1.6 to 3 |
| Cc1c(=O)n(C)c(Nc2ccc(I)cc2F)c2c(=O)n(C3CC3)c(=O)n(-c3cccc(OCC(=O)NC4CC4)c3)c12 [Compound 25, N-cyclopropyl-2-(3-(3-cyclopropyl-5-((2-fluoro-4-iodophenyl)amino)-6,8-dimethyl-2,4,7-trioxo-3,4,6,7-tetrahydropyrido[4,3-d]pyrimidin-1(2H)-yl)phenoxy)acetamide] | 0.5 to 1.5 |
| Cc1c(=O)n(C)c(Nc2ccc(I)cc2F)c2c(=O)n(C3CC3)c(=O)n(-c3cccc(C(C)(C)C(N)=O)c3)c12 [Compound 28, 2-(3-(3-cyclopropyl-5-((2-fluoro-4-iodophenyl)amino)-6,8-dimethyl-2,4,7-trioxo-3,4,6,7-tetrahydropyrido[4,3-d]pyrimidin-1(2H)-yl)phenyl)-2-methylpropanamide] | 0.001 to 0.499 |
| CNC(=O)COc1cccc(-n2c(=O)[nH]c(=O)c3c(Nc4ccc(I)cc4F)n(C)c(=O)c(C)c32)c1 [Compound 5, 2-(3-(5-((2-fluoro-4-iodophenyl)amino)-6,8-dimethyl-2,4,7-trioxo-3,4,6,7-tetrahydropyrido[4,3-d]pyrimidin-1(2H)-yl)phenoxy)-N-methylacetamide] | 0.001 to 0.499 |
| Cc1c(=O)n(C)c(Nc2ccc(I)cc2F)c2c(=O)n(C)c(=O)n(-c3cccc(C(F)(F)C(N)=O)c3)c12 [Compound 45, 2,2-difluoro-2-(3-(5-((2-fluoro-4-iodophenyl)amino)-3,6,8-trimethyl-2,4,7-trioxo-3,4,6,7-tetrahydropyrido[4,3-d]pyrimidin-1(2H)-yl)phenyl)acetamide] | 0.5 to 1.5 |
| Cc1c(=O)n(C)c(Nc2ccc(I)cc2F)c2c(=O)n(C3CC3)c(=O)n(-c3cccc(C4(C(N)=O)CC4)c3)c12 [Compound 78, 1-(3-(3-cyclopropyl-5-((2-fluoro-4-iodophenyl)amino)-6,8-dimethyl-2,4,7-trioxo-3,4,6,7-tetrahydropyrido[4,3-d]pyrimidin-1(2H)-yl)phenyl)cyclopropanecarboxamide] | 0.001 to 0.499 |
| Cc1c(=O)n(C)c(Nc2ccc(I)cc2F)c2c(=O)n(C)c(=O)n(-c3cccc(CCC(N)=O)c3)c12 [Compound 68, 3-(3-(5-((2-fluoro-4-iodophenyl)amino)-3,6,8-trimethyl-2,4,7-trioxo-3,4,6,7-tetrahydropyrido[4,3-d]pyrimidin-1(2H)-yl)phenyl)propanamide] | 0.001 to 0.499 |
| Cc1c(=O)n(C)c(Nc2ccc(I)cc2F)c2c(=O)n(C3COC3)c(=O)n(-c3cccc(OCC(N)=O)c3)c12 [Compound 71, 2-(3-(5-((2-fluoro-4-iodophenyl)amino)-6,8-dimethyl-3-(oxetan-3-yl)-2,4,7-trioxo-3,4,6,7-tetrahydropyrido[4,3-d]pyrimidin-1(2H)-yl)phenoxy)acetamide] | 1.6 to 3 |
| Cc1c(=O)n(C)c(Nc2ccc(I)cc2F)c2c(=O)n(C)c(=O)n(-c3cccc(C(=O)N4CCS(=O)(=O)CC4)c3)c12 [Compound 65, 1-(3-(1,1-dioxidothiomorpholine-4-carbonyl)phenyl)-5-((2-fluoro-4-iodophenyl)amino)-3,6,8-trimethylpyrido[4,3-d]pyrimidine-2,4,7(1H,3H,6H)-trione] | 0.001 to 0.499 |
| Cc1c(=O)n(C)c(Nc2ccc(I)cc2F)c2c(=O)n(C3CC3)c(=O)n(-c3cccc(C(=O)NC4CC4)c3)c12 [Compound 37, N-cyclopropyl-3-(3-cyclopropyl-5-((2-fluoro-4-iodophenyl)amino)-6,8-dimethyl-2,4,7-trioxo-3,4,6,7-tetrahydropyrido[4,3-d]pyrimidin-1(2H)-yl)benzamide] | 0.001 to 0.499 |
| Cc1c(=O)n(C)c(Nc2ccc(I)cc2F)c2c(=O)n(C3CC3)c(=O)n(-c3cccc(C(=O)N4CCC4)c3)c12 [Compound 24, 1-(3-(azetidine-1-carbonyl)phenyl)-3-cyclopropyl-5-((2-fluoro-4-iodophenyl)amino)-6,8-dimethylpyrido[4,3-d]pyrimidine-2,4,7(1H,3H,6H)-trione] | 0.001 to 0.499 |
| Cc1c(=O)n(C)c(Nc2ccc(I)cc2F)c2c(=O)[nH]c(=O)n(-c3cccc(C(=O)N4CCC4)c3)c12 [Compound 3, 1-(3-(azetidine-1-carbonyl)phenyl)-5-((2-fluoro-4-iodophenyl)amino)-6,8-dimethylpyrido[4,3-d]pyrimidine-2,4,7(1H,3H,6H)-trione] | 0.5 to 1.5 |
